Measurements: the supplement of paper PMC4166925
± gives the standard deviation of the averaged measurements. The full ranking holds about 33,000 sequences; the median of “E-score (dimensionless, -0.5 to 0.5)” is about -0.049, and the highest 2% start at about 0.37. Some of the results follow.

tested on: T1, PmTbr T-box DNA-binding domain (GST fusion); experiment: PBM E-score of 8-mer (E-score (dimensionless, -0.5 to 0.5)); Tbr is Tbrain of the sea star Patiria miniata (Pm) or the sea urchin Strongylocentrotus purpuratus (Sp); higher = stronger binding preference; most listed sequences are background and not binding sites; conditions: the construct has about 5 more residues each side
T1 sequence: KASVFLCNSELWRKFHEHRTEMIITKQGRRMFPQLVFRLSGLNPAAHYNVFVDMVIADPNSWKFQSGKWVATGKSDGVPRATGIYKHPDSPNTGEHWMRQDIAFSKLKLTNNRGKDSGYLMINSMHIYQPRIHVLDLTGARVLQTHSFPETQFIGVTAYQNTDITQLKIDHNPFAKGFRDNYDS
Protocol: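 Universal protein-binding microarray (Agilent AMADID 016060, 60-bp probes with a 35-bp variable region) incubated with 200 nM GST-fused Patiria miniata Tbr T-box DNA-binding domain (residues 272-466) in PBS pH 7.5. Scored for every ungapped 8-mer (given with its reverse complement) by the Universal PBM Analysis Suite as E-score (modified Wilcoxon-Mann-Whitney enrichment, range -0.5 to 0.5; >0.45 counts as bound) and Z-score of median probe intensity. Two replicate arrays (datasets 1 and 2).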
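Note: 200 nM protein in PBS on universal arrays averaged over duplicate arrays.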

| Sequence | PBM E-score of 8-mer |
| --- | --- |
| ACATCTGG | 0.0376 ± 0.0026 |
| GAAGGAGC | -0.195 ± 0.033 |
| GAATTGAC | 0.131 ± 0.032 |
| ATGCCTTG | -0.208 ± 0.0088 |
| CCAGGGCG | -0.0636 ± 0.049 |
| CTCCACGA | -0.0914 ± 0.033 |
| AAAGAGCG | -0.0458 ± 0.095 |
| AACAAGCC | 0.0289 ± 0.082 |
| GCCCCACA | 0.0796 ± 0.065 |
| GCGGGTCC | -0.0761 ± 0.13 |
| GCTATTCC | -0.164 ± 0.054 |
| CGTCCTTA | -0.252 ± 0.0069 |
| ATCTATAG | -0.192 ± 0.014 |
| CTGATCCA | -0.263 ± 0.021 |
| ACATCAAG | 0.0617 ± 0.036 |
| CGCGCTCC | 0.0854 ± 0.0011 |
| GAGTGCTA | 0.342 ± 0.0098 |
| AACTCCGG | -0.0239 ± 0.0016 |
| AGTTTGTC | 0.137 ± 0.042 |
| TGAACCAA | -0.038 ± 0.008 |
| AAATCAAA | -0.227 ± 0.005 |
| ATCGCTAC | 0.172 ± 0.022 |
| ACGGTATG | -0.054 ± 0.044 |
| AGTTACCG | -0.00622 ± 0.025 |
| CATATTCG | 0.0178 ± 0.033 |

| Sequence | PBM E-score of 8-mer |
| --- | --- |
| GCGTATAA | -0.0863 ± 0.039 |
| GTAGACAA | -0.0161 ± 0.17 |
| GGACTTGA | -0.145 ± 0.015 |
| CGGACGAA | -0.0167 ± 0.087 |
| ACGGGCCC | -0.139 ± 0.0076 |
| ATTAAACC | -0.166 ± 0.018 |
| ATTCTTGG | -0.232 ± 0.03 |
| AGACCCCT | -0.245 ± 0.086 |
| ATCAATGA | -0.141 ± 0.079 |
| GGCCCACC | -0.179 ± 0.059 |
| ACGTACTA | -0.101 ± 0.043 |
| CGATTCTC | 0.155 ± 0.055 |
| GAGGGGAA | -0.0558 ± 0.037 |
| CCTACTCC | -0.208 ± 0.019 |
| GACCCGCA | -0.0994 ± 0.029 |
| GCGCTCCA | -0.146 ± 0.046 |
| ATCCTCCG | -0.23107 ± 0.00014 |
| GACAATAA | -0.0138 ± 0.14 |
| CTAGTAAC | -0.194 ± 0.023 |
| CGACACTC | 0.353 ± 0.012 |
| ATCGTCGC | 0.0934 ± 0.014 |
| CAGCGCGG | 0.161 ± 0.046 |
| CACCGGTG | 0.118 ± 0.02 |
| ATTGATGG | -0.0997 ± 0.1 |
| CGACGGAG | -0.228 ± 0.049 |

| Sequence | PBM E-score of 8-mer |
| --- | --- |
| GAAGGTCA | 0.00198 ± 0.022 |
| CCGTTCAC | 0.363 ± 0.032 |
| CCTACGAA | -0.185 ± 0.08 |
| ACCTCCTC | 0.194 ± 0.07 |
| CTTGTGTA | -0.0312 ± 0.044 |
| CCGAAAGA | -0.15 ± 0.017 |
| CGCATCGC | 0.132 ± 0.0025 |
| GAATCTCC | -0.207 ± 0.018 |
| CCCTTCTC | -0.185 ± 0.1 |
| GTTTTCGA | -0.0457 ± 0.054 |
| CATTGGTC | -0.0726 ± 0.0062 |
| CACAAATC | 0.152 ± 0.015 |
| AACGAAAG | -0.213 ± 0.061 |
| GGGGTGGA | -0.0293 ± 0.00067 |
| AAAGTTCC | -0.0189 ± 0.053 |
| GAGCCGGC | -0.195 ± 0.059 |
| TCATGAAA | -0.155 ± 0.094 |
| AGTTTATG | -0.166 ± 0.021 |
| CAGTTCGG | -0.194 ± 0.042 |
| ATGTGTCG | 0.402 ± 0.0094 |
| CACCTCTC | 0.419 ± 0.023 |
| CTAAGATA | 0.113 ± 0.08 |
| CGTGAGCC | -0.00439 ± 0.056 |
| ATCAATTA | -0.0764 ± 0.18 |
| AGCAATAC | -0.131 ± 0.023 |

| Sequence | PBM E-score of 8-mer |
| --- | --- |
| ACTTTCCG | 0.0265 ± 0.076 |
| AGGTGGCG | 0.412 ± 0.023 |
| ACCTTGGG | 0.00928 ± 0.0083 |
| TGTGTGAA | 0.4728 ± 0.0017 |
| TCTACAAA | -0.119 ± 0.006 |
| AATGTAGT | -0.082 ± 0.11 |
| ACTTGAGA | 0.211 ± 0.021 |
| AATCTTAT | -0.0504 ± 0.069 |
| AACATGTA | -0.0486 ± 0.06 |
| CAAGCTTG | 0.0509 ± 0.017 |
| ATGCCCTG | -0.173 ± 0.021 |
| AGAGGAAT | -0.19 ± 0.026 |
| CAGTTCTC | 0.1801 ± 0.00042 |
| GATGCGTA | 0.00998 ± 0.021 |
| CTATCTCA | 0.16 ± 0.025 |
| AGACTTTC | -0.00978 ± 0.08 |
| AAACCCCC | -0.123 ± 0.018 |
| ACATAATC | -0.0607 ± 0.0033 |
| GAGTTCCC | -0.291 ± 0.0084 |
| AGAGTATA | -0.0854 ± 0.04 |
| ATGAGCCG | -0.0592 ± 0.039 |
| ACCTTCTG | 0.0725 ± 0.01 |
| ACAGCGCC | 0.0632 ± 0.073 |
| AAGACCTA | -0.243 ± 0.043 |
| CTCGGGTA | -0.138 ± 0.011 |

| Sequence | PBM E-score of 8-mer |
| --- | --- |
| ACAGGTCA | 0.124 ± 0.051 |
| AATACGGG | -0.108 ± 0.013 |
| CGCCCGTC | 0.0562 ± 0.17 |
| GTGTACTA | -0.0987 ± 0.0014 |
| GTCGGAAA | -0.0258 ± 0.018 |
| GTAAGGTA | -0.0348 ± 0.066 |
| ATTCTACG | -0.294 ± 0.065 |
| GCGCCGCC | 0.0263 ± 0.12 |
| GGGGCTCA | -0.171 ± 0.025 |
| AAAAAGCG | 0.0254 ± 0.042 |
| ACCGACAA | -0.0367 ± 0.05 |
| GCTGTCGA | 0.187 ± 0.014 |
| CACTTACA | 0.268 ± 0.0083 |
| CCCTATCC | 0.0967 ± 0.02 |
| AAAGAAAT | -0.0667 ± 0.016 |
| CACTGCTG | -0.132 ± 0.038 |
| CATTTGAG | -0.195 ± 0.0064 |
| ATTCCCCG | -0.0984 ± 0.03 |
| AATTTCAT | -0.0528 ± 0.062 |
| CGGGACCA | -0.178 ± 0.082 |
| AAGTCCCA | -0.0928 ± 0.075 |
| CAACAGTA | -0.0685 ± 0.048 |
| AATATTCA | -0.0178 ± 0.073 |
| CTGAGTGA | 0.0367 ± 0.03 |
| AGTAGATC | -0.323 ± 0.031 |

| Sequence | PBM E-score of 8-mer |
| --- | --- |
| GTCGAATA | -0.113 ± 0.031 |
| CATAATGG | 0.00285 ± 0.034 |
| CACAGCGA | 0.0526 ± 0.053 |
| CCGTTACC | -0.0335 ± 0.09 |
| AGACGGAG | 0.0235 ± 0.00075 |
| ATACGCTA | -0.0402 ± 0.067 |
| GATATGAA | 0.133 ± 0.062 |
| ATCTTAGA | -0.0793 ± 0.081 |
| ATTATGTA | -0.122 ± 0.044 |
| CACTAATG | 0.0749 ± 0.0057 |
| ACCAGTCT | -0.146 ± 0.029 |
| ACTCCCCC | -0.313 ± 0.013 |
| ACTTGAAC | -0.192 ± 0.034 |
| GTGACGCA | 0.247 ± 0.0029 |
| AAGTATAC | 0.00161 ± 0.031 |
| ACGTCTGG | -0.162 ± 0.011 |
| CGTCTCTC | -0.0954 ± 0.065 |
| ACCGGTTG | -0.00328 ± 0.0079 |
| ACTCTTCA | 0.0433 ± 0.026 |
| AACTCTTG | -0.127 ± 0.013 |
| AACACGGC | 0.162 ± 0.017 |
| AGTCTGGG | -0.241 ± 0.012 |
| ATAAGGCC | -0.236 ± 0.055 |
| AGCAATGC | -0.245 ± 0.029 |
| AGATGGGA | -0.103 ± 0.051 |

| Sequence | PBM E-score of 8-mer |
| --- | --- |
| AGTCGATA | 0.147 ± 0.016 |
| AGACAGAT | 0.0227 ± 0.038 |
| TGTCATAA | 0.313 ± 0.013 |
| GCGACTCC | 0.129 ± 0.013 |
| ATTCCTAA | -0.201 ± 0.082 |
| CTCTGCAA | -0.153 ± 0.011 |
| AAACGAAG | -0.193 ± 0.039 |
| CGACGTTC | -0.118 ± 0.032 |
| GATCAAAA | -0.0678 ± 0.011 |
| GTGCGCCA | 0.0331 ± 0.033 |
| TGGCTAAA | -0.229 ± 0.036 |
| GTAAAAAA | -0.0133 ± 0.15 |
| ACTCCTCG | 0.219 ± 0.032 |
| ACAGTGCG | 0.251 ± 0.025 |
| GAGCGATA | 0.0896 ± 0.013 |
| GCGCACAA | -0.101 ± 0.045 |
| AAGAATAT | -0.29038 ± 4.2e-05 |
| CTAGTTGC | 0.117 ± 0.043 |
| AGTCGTTA | 0.0549 ± 0.084 |
| CGTCCCCC | -0.328 ± 0.11 |
| ACGGTGTA | 0.16 ± 0.0067 |
| ATAATCGG | -0.0796 ± 0.0029 |
